# Source: PubChem BioAssay AID485344 (National Center for Advancing Translational Sciences (NCATS), 2010)
# About 6,900 (2%) of roughly 340,000 compounds were called active. Rule as the data show it: active = inhibition above about 30%; inactive = below that, where a call was filed. The entries are a selection whose mix differs from that of the whole data set. The source gives no active or inactive call for entries shown without one.
# Biological target: D(2) dopamine receptor (Homo sapiens) (UniProt P14416)
# Test: HTS Assay for Allosteric Antagonists of the Human D2 Dopamine Receptor: Primary Screen for Antagonists; also: 0% is about no effect
# Conditions: HEK293 TREx D2 cells, calcium flux, dopamine EC80; at 10 µM; stronger effect = higher value
# Outline: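 In this primary screen, negative modulation is detected by tracking calcium flux after an EC80 dopamine challenge in inducible HEK293 T-REx D2 cells preexposed to test compound for 180 s.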
# Chain of UniProt P14416 (P14416 whole entry, looked up): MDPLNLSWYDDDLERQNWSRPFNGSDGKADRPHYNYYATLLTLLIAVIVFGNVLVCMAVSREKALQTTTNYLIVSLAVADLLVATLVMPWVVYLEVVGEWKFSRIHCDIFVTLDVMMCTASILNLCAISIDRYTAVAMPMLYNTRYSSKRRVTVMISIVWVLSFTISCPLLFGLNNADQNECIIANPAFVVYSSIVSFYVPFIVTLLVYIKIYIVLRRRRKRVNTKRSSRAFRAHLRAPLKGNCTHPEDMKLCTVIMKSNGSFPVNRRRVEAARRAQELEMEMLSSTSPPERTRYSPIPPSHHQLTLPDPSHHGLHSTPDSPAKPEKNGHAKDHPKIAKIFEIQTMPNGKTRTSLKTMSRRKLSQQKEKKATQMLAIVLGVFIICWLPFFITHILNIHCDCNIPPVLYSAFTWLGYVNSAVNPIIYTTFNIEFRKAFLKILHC
row,Compound,inhibition
1,Cc1ccc(S(=O)(=O)N2[C@@H](c3ccc(Cl)cc3)C(C(=O)O)=CC[C@H]2c2ccc(C(C)C)cc2)cc1,active: 38.9%
2,Cc1ccc(C2=NN(CC(=O)NCCCN(CC(C)C)CC(C)C)C(=O)CC2)cc1,-24.1%
3,CCCCc1nn2c(=O)cc(COC(=O)c3cccc(NC(=O)COc4ccccc4)c3)nc2s1,-13.7%
4,CCOCCCNC(=O)c1ccc2c(c1)NC(=O)C(CS(=O)(=O)Cc1ccc(F)cc1Cl)N2 (stereo not given),-4.49%
5,Cc1cc2[nH]c(=O)c(=O)[nH]c2cc1S(=O)(=O)NCc1ccc(F)cc1,10.1%
6,Cc1cc(C)n(-c2nc3ccccc3nc2Nc2ccc(C(C)C)cc2)n1,-3.44%
7,CCOC(=O)Cc1ccc(NC(=O)Nc2ccccc2OCc2cc(=O)n3ccccc3n2)cc1,19.8%
8,O=C(NCc1ccc2c(c1)CCN2C(=O)c1ccccc1)Nc1cc(F)ccc1F,-10.4%
9,COc1ccccc1-n1c(=O)c2c3c(sc2n(C)c1=O)CN(C(C)=O)CC3,-8.86%
10,COc1ccc(Cn2c(CNS(=O)(=O)c3ccc(C)c(C)c3)nc3cccnc32)cc1,16.9%
11,CCN1CCN(c2ncnc3c2cnn3-c2ccc(C)c(Cl)c2)CC1,-1.03%
12,CC(Oc1ccc(F)cc1)C(=O)Nc1nc(-c2ccc(F)cc2)ns1 (stereo not given),27.6%
13,COc1ccc(C)cc1S(=O)(=O)NCC(c1cccs1)S(=O)(=O)c1ccc(C)cc1 (stereo not given),-4.29%
14,COC(=O)c1ccc(NC(=O)CCc2c(C)nc3c(-c4ccccc4)c(C)nn3c2C)cc1,5.14%
15,CCn1c(CNC(=O)c2ccc(OC)cc2)nnc1SCC(=O)Nc1ccccc1,-1.55%
16,CCOC(=O)c1ccc(OCC2c3cc(OC)c(OC)cc3CCN2C(=O)c2ccc(S(=O)(=O)N3CCCC3)cc2)cc1 (stereo not given),11.5%
17,COc1ccc(-n2c(C)c(C(C)=O)c3cc(OC(=O)c4ccc(C)cc4)ccc32)cc1,-20.8%
18,CN1CCN(CCOC2Cc3ccccc3Sc3ccc(Cl)cc32)CC1 (stereo not given),active: 87.9%
19,Cc1ccc(CCNC(=O)c2cn(C)c3ccc(S(=O)(=O)N(C)C4CCCCC4)cc3c2=O)cc1,14.8%
20,CCC1=Nc2cc(C(=O)NCC(C)c3ccccc3)ccc2Sc2ccc(C)cc21 (stereo not given),10.2%

row,Compound,inhibition
1,COc1ccc(CNS(=O)(=O)c2cc3c(cc2C)N(C)CCO3)cc1,-1.4%
2,Cc1ccc(Cn2cc(C(=O)c3ccc(F)cc3)c(=O)c3cc4c(cc32)OCO4)cc1,-5.56%
3,Cc1cccc(NC(=O)c2cc(S(=O)(=O)NCc3ccc4c(c3)OCO4)ccc2F)c1C,-1.49%
4,CN(C)CCCN1c2ccccc2Sc2ccc(C(F)(F)F)cc21,active: 94.9%
5,CCOC(=O)Cn1c(=O)n(CC2CCCO2)c2nc(-c3ccccc3F)nc(C(N)=O)c21 (stereo not given),-14.2%
6,CCN(c1ccc(C)cc1)S(=O)(=O)c1nnc(NC(=O)C2CCCCC2)s1,-2.92%
7,Cc1ccc(OCC(=O)NCC(c2ccc(Cl)cc2)N2CCCCC2)cc1 (stereo not given),21.2%
8,Cc1ccc(C)c(CN2C(=O)c3ccccc3S(=O)(=O)c3ccc(C(=O)N4CCc5ccccc54)cc32)c1,1.23%
9,CCCNC(=O)CSc1nc2ccccc2nc1Cc1ccc(Cl)cc1,-9.77%
10,COc1ccc(NC(=O)N2CCc3c(sc4c3CCCC4)C2c2ccccc2OC)cc1 (stereo not given),2.69%
11,CC(C)CC(=O)Nc1ccc2nc(SCC(=O)N3CCCC3)sc2c1,-12.1%
12,CCOc1ccc(N(CC(=O)Nc2cc(C)ccc2C)S(=O)(=O)c2c(C)[nH]c(=O)[nH]c2=O)cc1,-12%
13,Cc1ccc(NC(=O)CCn2nc(C)c(S(=O)(=O)N3CCCCC3)c2C)cc1Cl,-5.78%
14,OCC1(Cc2ccc(Cl)cc2)CCN(CCCc2ccccc2)CC1,active: 69.1%
15,CCOC(=O)c1c(C)sc(-c2c(-c3cc(C)ccc3C)[nH]c3c2c(=O)n(C)c(=O)n3C)c1O,-5.94%
16,O=C(Nc1cccc(Cl)c1Cl)c1cc2nc(-c3ccc(Cl)cc3)cc(C(F)(F)F)n2n1,-7.35%
17,Cc1ccc(CN2C(=O)CN(C3CCC(C)CC3)C(=O)C2c2ccc(F)cc2)cc1 (stereo not given),-15.3%
18,COc1ccc(Cn2c(=O)n(-c3ccccc3C)c(=O)c3c4c(sc32)CN(C(C)=O)CC4)cc1,9.39%
19,CCCN(CCC)CCNC(=O)c1cc2c(-c3ccc(Cl)cc3)nn(C)c2s1,active: 37%
20,COc1cc(-c2noc(CN3CCN(c4cccc(Cl)c4)CC3)n2)cc(OC)c1OC,-16.4%

row,Compound,inhibition
1,CSc1cccc(NC(=O)CC(c2cccs2)N2Cc3ccccc3C2=O)c1 (stereo not given),-1.13%
2,Cc1ccc(NC(=O)CSc2n[nH]c(-c3ccc(F)cc3)n2)cc1F,-6.05%
3,CCOc1ccccc1NC(=O)N1CCN(C)c2ncccc21,-13.1%
4,CSc1ccc(CCNC(=O)CCc2c(C)nc3c(c(C)nn3-c3ccc(C)c(C)c3)c2C)cc1,1.93%
5,COc1ccc2nc(NC(=O)c3nc(S(=O)(=O)Cc4ccccc4)ncc3Cl)sc2c1,11%
6,CCN(CC)CCNC(=O)c1cc(-c2ccc(Br)s2)nc2ccccc12,-8.1%
7,CCc1nn(CC(=O)Nc2cc(C)cc(C)c2)c(=O)c2cc3sccc3n12,0.995%
8,Cc1ccc(CN2CCCn3nc(C(=O)NCc4ccc(OC(C)C)cc4)cc3C2=O)cc1,9.44%
9,C=CCn1c(=O)c(C#N)cc2c(=O)n3ccccc3nc21,active: 57.8%
10,CCN(CC)CCNC(=O)C1CCN(c2cc(C)nc3c(-c4ccc(Cl)cc4)c(C)nn23)CC1,16.3%
11,Cc1ccc(NC(=O)CSc2nc(=O)n(CCCN3CCOCC3)c3c2CCCC3)cc1F,active: 31.1%
12,O=C(Cn1nc(-c2ccccc2)nc(Cc2ccccc2)c1=O)Nc1ccccc1,2.3%
13,CCCCC(=O)OC1=C(C(C)=O)N(Cc2ccccc2)S(=O)(=O)c2ccccc21,9.27%
14,Cc1ccc(C)c(CSc2ccc3nnc(CCNS(=O)(=O)c4ccccc4)n3n2)c1,3.37%
15,Cc1ccn2c(Nc3ccc(F)cc3)c(-c3ccccn3)nc2c1,21.5%
16,COc1ccc(OC)c(Nc2ncnc3c2cnn3-c2cccc(Cl)c2)c1,-21.3%
17,COCCNC(=O)CSc1cn(CC(=O)N2CCCCCC2)c2ccccc12,6.06%
18,CCCCS(=O)(=O)CC(COc1ccccc1)OC(=O)c1ccccc1 (stereo not given),active: 34.9%
19,CSc1ccc(CCNC(=O)Cn2ncc3c(=O)oc4ccccc4c32)cc1,11.9%
20,Cc1ccc(NC(=O)C2CCCN2S(=O)(=O)c2ccc3nc(-c4ccccc4)[nH]c3c2)cc1F (stereo not given),4.24%
